# Reference: the supplement of paper PMC8728848
# The list shows a part of the results.
# Tests used:
# Assay in all cases: glycan array binding signal (z-score within array); higher = stronger binding
# Settings in all cases: glycan notation: IUPAC condensed, linker removed
# Fuc(a1-2)Gal = target: Fuc(a1-2)Gal
# In short: (§1)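 From the Consortium for Functional Glycomics database, 3228 arrays were curated, keeping only those whose protein sequence was available. Binding is given as a within-array Z-score averaged across arrays sharing a protein sequence and across linkers. Negative Z-scores can be read as non-binding.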
# Fuc(a1-2)Gal(b1-3)GalNAc = target: Fuc(a1-2)Gal(b1-3)GalNAc
# In short: as §1
# [1] = target: Fuc(a1-2)Gal(b1-3)GalNAc(a1-3)[Fuc(a1-2)]Gal(b1-4)Glc
# In short: as §1
# [2] = target: Fuc(a1-2)Gal(b1-3)GalNAc(a1-3)[Fuc(a1-2)]Gal(b1-4)GlcNAc
# In short: as §1
# [3] = target: Fuc(a1-2)Gal(b1-3)GalNAc(b1-3)Gal
# In short: as §1
# [4] = target: Fuc(a1-2)Gal(b1-3)GalNAc(b1-3)Gal(a1-4)Gal(b1-4)Glc
# In short: as §1
# [5] = target: Fuc(a1-2)Gal(b1-3)GalNAc(b1-4)[Neu5Ac(a2-3)]Gal(b1-4)Glc
# In short: as §1
# Fuc(a1-2)Gal(b1-3)GlcNAc = target: Fuc(a1-2)Gal(b1-3)GlcNAc
# In short: as §1
# [6] = target: Fuc(a1-2)Gal(b1-3)GlcNAc(b1-2)Man(a1-3)[Fuc(a1-2)Gal(b1-3)GlcNAc(b1-2)Man(a1-6)]Man(b1-4)GlcNAc(b1-4)GlcNAc
# In short: as §1
# [7] = target: Fuc(a1-2)Gal(b1-3)GlcNAc(b1-2)Man(a1-3)[Fuc(a1-2)Gal(b1-3)GlcNAc(b1-2)Man(a1-6)]Man(b1-4)GlcNAc(b1-4)[Fuc(a1-6)]GlcNAc
# In short: as §1
# [8] = target: Fuc(a1-2)Gal(b1-3)GlcNAc(b1-3)Gal(b1-4)Glc
# In short: as §1
# [9] = target: Fuc(a1-2)Gal(b1-3)GlcNAc(b1-3)GalNAc
# In short: as §1
# [10] = target: Fuc(a1-2)Gal(b1-3)GlcNAc(b1-3)[Fuc(a1-2)Gal(b1-3)GlcNAc(b1-6)]GalNAc
# In short: as §1
# [11] = target: Fuc(a1-2)Gal(b1-3)GlcNAc(b1-3)[Gal(b1-4)GlcNAc(b1-6)]Gal(b1-4)Glc
# In short: as §1
# [12] = target: Fuc(a1-2)Gal(b1-3)GlcNAc(b1-3)[Neu5Ac(a2-6)Gal(b1-4)GlcNAc(b1-6)]Gal(b1-4)Glc
# In short: as §1
# [13] = target: Fuc(a1-2)Gal(b1-3)GlcNAc6S
# In short: as §1
# [14] = target: Fuc(a1-2)Gal(b1-3)[Fuc(a1-4)]GlcNAc
# In short: as §1
# [15] = target: Fuc(a1-2)Gal(b1-3)[Fuc(a1-4)]GlcNAc(b1-2)Man(a1-3)[Fuc(a1-2)Gal(b1-3)[Fuc(a1-4)]GlcNAc(b1-2)Man(a1-3)]Man(b1-4)GlcNAc(b1-4)GlcNAc
# In short: as §1
# [16] = target: Fuc(a1-2)Gal(b1-3)[Fuc(a1-4)]GlcNAc(b1-2)Man(a1-3)[Fuc(a1-2)Gal(b1-3)[Fuc(a1-4)]GlcNAc(b1-2)Man(a1-6)]Man(b1-4)GlcNAc(b1-4)[Fuc(a1-6)]GlcNAc(b1-4)[Fuc(a1-6)]GlcNAc
# In short: as §1
# [17] = target: Fuc(a1-2)Gal(b1-3)[Fuc(a1-4)]GlcNAc(b1-3)[Fuc(a1-3)[Gal(b1-4)]GlcNAc(b1-6)]Gal(b1-4)Glc
# In short: as §1
# [18] = target: Fuc(a1-2)Gal(b1-3)[Fuc(a1-4)]GlcNAc(b1-3)[Gal(b1-4)GlcNAc(b1-6)]Gal(b1-4)Glc
# In short: as §1
# Fuc(a1-2)Gal(b1-4)Glc = target: Fuc(a1-2)Gal(b1-4)Glc
# In short: as §1
# Fuc(a1-2)Gal(b1-4)Glc6S = target: Fuc(a1-2)Gal(b1-4)Glc6S
# In short: as §1
# Fuc(a1-2)Gal(b1-4)GlcNAc = target: Fuc(a1-2)Gal(b1-4)GlcNAc
# In short: as §1
# [19] = target: Fuc(a1-2)Gal(b1-4)GlcNAc(b1-2)Man
# In short: as §1
# [20] = target: Fuc(a1-2)Gal(b1-4)GlcNAc(b1-2)Man(a1-3)[Fuc(a1-2)Gal(b1-4)GlcNAc(b1-2)Man(a1-6)]Man(b1-4)GlcNAc(b1-4)GlcNAc
# In short: as §1
# [21] = target: Fuc(a1-2)Gal(b1-4)GlcNAc(b1-2)Man(a1-3)[Fuc(a1-2)Gal(b1-4)GlcNAc(b1-2)Man(a1-6)]Man(b1-4)GlcNAc(b1-4)[Fuc(a1-6)]GlcNAc
# In short: as §1
# [22] = target: Fuc(a1-2)Gal(b1-4)GlcNAc(b1-2)[Fuc(a1-2)Gal(b1-4)GlcNAc(b1-4)]Man(a1-3)[Fuc(a1-2)Gal(b1-4)GlcNAc(b1-2)Man(a1-6)]Man(b1-4)GlcNAc(b1-4)GlcNAc
# In short: as §1
# [23] = target: Fuc(a1-2)Gal(b1-4)GlcNAc(b1-3)Gal(b1-4)GlcNAc
# In short: as §1
# [24] = target: Fuc(a1-2)Gal(b1-4)GlcNAc(b1-3)Gal(b1-4)GlcNAc(b1-2)Man(a1-3)[Fuc(a1-2)Gal(b1-4)GlcNAc(b1-3)Gal(b1-4)GlcNAc(b1-2)Man(a1-6)]Man(b1-4)GlcNAc(b1-4)GlcNAc
# In short: as §1
# [25] = target: Fuc(a1-2)Gal(b1-4)GlcNAc(b1-3)Gal(b1-4)GlcNAc(b1-3)Gal(b1-4)GlcNAc
# In short: as §1
# [26] = target: Fuc(a1-2)Gal(b1-4)GlcNAc(b1-3)GalNAc
# In short: as §1
# [27] = target: Fuc(a1-2)Gal(b1-4)GlcNAc(b1-3)[Fuc(a1-2)Gal(b1-4)GlcNAc(b1-6)]GalNAc
# In short: as §1
# [28] = target: Fuc(a1-2)Gal(b1-4)GlcNAc(b1-3)[Fuc(a1-3)[Gal(b1-4)]GlcNAc(b1-6)]Gal(b1-4)Glc
# In short: as §1
# [29] = target: Fuc(a1-2)Gal(b1-4)GlcNAc(b1-6)GalNAc
# In short: as §1
# [30] = target: Fuc(a1-2)Gal(b1-4)GlcNAc6S
# In short: as §1
# [31] = target: Fuc(a1-2)Gal(b1-4)[Fuc(a1-3)]GlcNAc
# In short: as §1
# [32] = target: Fuc(a1-2)Gal(b1-4)[Fuc(a1-3)]GlcNAc(b1-2)Man(a1-3)[Fuc(a1-2)Gal(b1-4)[Fuc(a1-3)]GlcNAc(b1-2)Man(a1-6)]Man(b1-4)GlcNAc(b1-4)[Fuc(a1-6)]GlcNAc
# In short: as §1
# [33] = target: Fuc(a1-2)Gal(b1-4)[Fuc(a1-3)]GlcNAc(b1-2)[Fuc(a1-2)Gal(b1-4)[Fuc(a1-3)]GlcNAc(b1-4)]Man(a1-3)[Fuc(a1-2)Gal(b1-4)[Fuc(a1-3)]GlcNAc(b1-2)Man(a1-6)]Man(b1-4)GlcNAc(b1-4)GlcNAc
# In short: as §1
# [34] = target: Fuc(a1-2)Gal(b1-4)[Fuc(a1-3)]GlcNAc(b1-3)Gal(b1-4)[Fuc(a1-3)]GlcNAc
# In short: as §1
# [35] = target: Fuc(a1-2)Gal(b1-4)[Fuc(a1-3)]GlcNAc(b1-3)Gal(b1-4)[Fuc(a1-3)]GlcNAc(b1-3)Gal(b1-4)[Fuc(a1-3)]GlcNAc
# In short: as §1
# [36] = target: Fuc(a1-2)Gal(b1-4)[Fuc(a1-3)]GlcNAc(b1-3)GalNAc
# In short: as §1
# [37] = target: Fuc(a1-2)Gal(b1-4)[Fuc(a1-3)]GlcNAc(b1-3)[Neu5Ac(a2-6)Gal(b1-4)GlcNAc(b1-6)]Gal(b1-4)Glc
# In short: as §1
# [38] = target: Fuc(a1-2)Gal3S(b1-4)GlcNAc
# In short: as §1
# [39] = target: Fuc(a1-2)Gal6S(b1-3)GlcNAc
# In short: as §1
binder,measurement,setting,value
HPL (Tachypleus tridentatus) (protein) MEDDCTCVTDRSLEGKLMKHPSTPAVYQILDGCRRLVPNPPTYNNIYKNWECIQSNILEKLLCKCDSLSNGAELIKGSGDTVYLLSNGVKRPIADPETFNGFCFDWNKIKTYSDIVINSLSTGPIIIIKHHHHHH,glycan array binding signal (z-score),Fuc(a1-2)Gal,-0.153
same,glycan array binding signal (z-score),Fuc(a1-2)Gal(b1-3)GalNAc,-0.356
same,glycan array binding signal (z-score),[1],-0.298
same,glycan array binding signal (z-score),[2],-0.327
same,glycan array binding signal (z-score),[3],-0.193
same,glycan array binding signal (z-score),[4],-0.202
same,glycan array binding signal (z-score),[5],-0.239
same,glycan array binding signal (z-score),Fuc(a1-2)Gal(b1-3)GlcNAc,-0.294
same,glycan array binding signal (z-score),[6],4.15
same,glycan array binding signal (z-score),[7],-0.043
same,glycan array binding signal (z-score),[8],-0.339
same,glycan array binding signal (z-score),[9],-0.151
same,glycan array binding signal (z-score),[10],0.261
same,glycan array binding signal (z-score),[11],-0.298
same,glycan array binding signal (z-score),[12],-0.343
same,glycan array binding signal (z-score),[13],-0.259
same,glycan array binding signal (z-score),[14],-0.299
same,glycan array binding signal (z-score),[15],0.082
same,glycan array binding signal (z-score),[16],-0.146
same,glycan array binding signal (z-score),[17],-0.269
same,glycan array binding signal (z-score),[18],-0.14
same,glycan array binding signal (z-score),Fuc(a1-2)Gal(b1-4)Glc,0.039
same,glycan array binding signal (z-score),Fuc(a1-2)Gal(b1-4)Glc6S,0.223
same,glycan array binding signal (z-score),Fuc(a1-2)Gal(b1-4)GlcNAc,-0.381
same,glycan array binding signal (z-score),[19],0.485
same,glycan array binding signal (z-score),[20],1.38
same,glycan array binding signal (z-score),[21],3.19
same,glycan array binding signal (z-score),[22],-0.079
same,glycan array binding signal (z-score),[23],-0.193
same,glycan array binding signal (z-score),[24],0.295
same,glycan array binding signal (z-score),[25],-0.284
same,glycan array binding signal (z-score),[26],-0.192
same,glycan array binding signal (z-score),[27],-0.28
same,glycan array binding signal (z-score),[28],-0.284
same,glycan array binding signal (z-score),[29],0.018
same,glycan array binding signal (z-score),[30],-0.195
same,glycan array binding signal (z-score),[31],-0.364
same,glycan array binding signal (z-score),[32],0.039
same,glycan array binding signal (z-score),[33],2.19
same,glycan array binding signal (z-score),[34],-0.324
same,glycan array binding signal (z-score),[35],-0.035
same,glycan array binding signal (z-score),[36],-0.045
same,glycan array binding signal (z-score),[37],-0.2
same,glycan array binding signal (z-score),[38],-0.264
same,glycan array binding signal (z-score),[39],0.027
